No constants are given. Whether binding was seen depends on the method and setting. For some assays here: In cells and extracts the contact can be indirect. Some entries that bind do so weakly or less than the wild type. For some assays here: Where a sequence is shown, tags or fusion partners need not be part of it.
T1: GST-LDZIP, leucine zipper domain of human RanBP2 (residues 447-483) fused to GST (human) (UniProt P49792)
T1 sequence: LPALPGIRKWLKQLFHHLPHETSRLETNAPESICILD


Columns and labels:
[1] = molecular target: GST-LD, leucine-rich domain of RanBP2 fused to glutathione S-transferase (human) (UniProt P49792); test: pull-down; GST-JX2 (2.2 uM) incubated with extracts (~2.0 mg) of seven different tissues; Western blot against HKI and Cox11; only the target purified
[2] = molecular target: T1, GST-LDZIP, leucine zipper domain of human RanBP2 (residues 447-483) fused to GST (human); test: pull-down; GST-fused proteins (0.5-2.2 uM) with CHAPS-solubilized retinal extracts; co-precipitates analysed by Western blot; only the target purified
[3] = molecular target: GST-LD, leucine-rich domain of RanBP2 fused to glutathione S-transferase (human) (UniProt P49792); test: as above
[4] = molecular target: Leucine-rich domain (LD) of human RanBP2 (residues 62-711), GAL4 DNA-binding domain bait (human) (UniProt P49792); test: two-hybrid; GAL4 system; LD and its subdomains as GAL4 DNA-binding domain baits (pBUTE, HybriZAP pBD-GAL4); screens of murine embryo and brain and bovine retinal cDNA libraries; interactions quantified by liquid beta-galactosidase and growth assays

binding [1]	binding [3]	binding [4]	Binder	binding [2]
binds	binds		Cox11, endogenous in retinal and other tissue extracts (protein, UniProt Q6P8I6 75-275) SSNPFQRAQEDEWRRRNKTVLTYVAAAAVGMLGASYAAVPLYRLYCQTTGLGGSAVAGHSSDQIENMVPVKDRVIKVTFNADVHASLQWNFRPQQTEIYVVPGETALAFYKAKNPTDKPVIGISTYNVVPFEAGQYFNKIQCFCFEEQRLNPQEEVDMPVFFYIDPEFAEDPRMVNVDLITLSYTFFEAKEGHKLPVPGYN	no binding (tested: 0.5–2.2 μM of GST-fused proteins)
		binds	Cox11-C, mitochondrial intermembrane domain of murine Cox11, two-hybrid construct (domain or fragment, UniProt Q6P8I6 117-275) RLYCQTTGLGGSAVAGHSSDQIENMVPVKDRVIKVTFNADVHASLQWNFRPQQTEIYVVPGETALAFYKAKNPTDKPVIGISTYNVVPFEAGQYFNKIQCFCFEEQRLNPQEEVDMPVFFYIDPEFAEDPRMVNVDLITLSYTFFEAKEGHKLPVPGYN	
		binds	Murine Cox11, two-hybrid construct (intact/complete Cox11) (protein, UniProt Q6P8I6 1-275) MGGLWCPGWRLVASCGRGWRQPGWSGRTVVNAELVLRPGWDGLGGAERGLRRLGTWKRPCGVRGPATQPPRRPRSSNPFQRAQEDEWRRRNKTVLTYVAAAAVGMLGASYAAVPLYRLYCQTTGLGGSAVAGHSSDQIENMVPVKDRVIKVTFNADVHASLQWNFRPQQTEIYVVPGETALAFYKAKNPTDKPVIGISTYNVVPFEAGQYFNKIQCFCFEEQRLNPQEEVDMPVFFYIDPEFAEDPRMVNVDLITLSYTFFEAKEGHKLPVPGYN	

Source: paper PMC1626108
